In the RNAGym collection of RNA variant scans (doi:10.1093/nar/gkz1192):
Read counts are not given, so values of variants with three or more changes are uncertain.

B1: CPEB3 Ribozyme (parent)
chain: UAACAGGGGGCCACAGCAGAAGCGUUCACGUCGCAGCCCCUGUCAGAUUCUGGUGAAUCUGCGAAUUCUGCUGUAUAUCUC

Variants of: B1
Test: self-cleavage, relative activity (ratio to wild type); higher = more cleavage; in vitro, sequencing
Summary of the method: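 Relative activity was defined as the cleaved/total read fraction for a variant divided by the same fraction for the unmutated ribozyme. CPEB3 self-cleaving ribozyme libraries were made by rounds of error-prone PCR, barcoded, and transcribed in vitro with T7 RNA polymerase for 5 hours at 37°C, and cleavage ran through transcription plus a 15 min DNase I step before EDTA. Illumina sequencing of template-switched reverse transcripts gave the reads, and DNA sequencing mapped the barcodes. Averages come from three batches, using variants with at least 5 reads.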
For A13U A15U G24U U31A A45G, the self-cleavage was 0.15. With A13U A15U U31A G63A the self-cleavage was 0.09. Work on A13U A15U U41G U80C yielded a self-cleavage of 0.32. For A13U A15U U48A U67C, the self-cleavage was 0.21. In the case of A13U A15U U54C, the self-cleavage is reported as 0.85. Work on A13U A15U U54C C81U yielded a self-cleavage of 0.21. With A13U A15U U58G the self-cleavage was 0.12. In the case of A13U A18C A21U, the self-cleavage is reported as 0.1. For A13U A18C A65G G73A, the self-cleavage was 0.16. Work on A13U A18C G36A C37A A47G C71U U72A yielded a self-cleavage of 0.04. For A13U A18C U25C U26C C40U U54A, the self-cleavage was 0.29. For A13U A18C U26C, the self-cleavage was 0.09. A13U A18C U41A A45G gave a self-cleavage of 0.3. With A13U A18C U51C A64G U69C U74C the self-cleavage was 0.34. For A13U A18G A20G U31A A57G, the self-cleavage was 0.15. A13U A18G A20U A64G gave a self-cleavage of 0.17. For A13U A18G A20U C81A, the self-cleavage was 0.24. A13U A18G A21C U25A gave a self-cleavage of 0.4. For A13U A18G A21U U51C U60G, the self-cleavage was 0.11. Variant A13U A18G A28C U43C U58A has a self-cleavage of 0.2. Work on A13U A18G A28G U60C yielded a self-cleavage of 0.1. A13U A18G A35G U54C U67C C79A showed a self-cleavage of 0.24. Work on A13U A18G A35G U60C yielded a self-cleavage of 0.54. Variant A13U A18G A45U A56U U80G has a self-cleavage of 0.11. For A13U A18G A56G U60A A64U, the self-cleavage was 0.26. Work on A13U A18G C34U U43C A45G G63U yielded a self-cleavage of 0.08. For A13U A18G C37G U48C A77U, the self-cleavage was 0.22. Variant A13U A18G C68A has a self-cleavage of 0.25. Variant A13U A18G G33A has a self-cleavage of 0.37. For A13U A18G G46U, the self-cleavage was 0.21. A13U A18G U25C C29U U80A gave a self-cleavage of 0.26. For A13U A18G U25C C59A, the self-cleavage was 0.18. In the case of A13U A18G U26A A35U C40G U41G U78C, the self-cleavage is reported as 0.07. Work on A13U A18G U26A G52C A77C yielded a self-cleavage of 0.52. With A13U A18G U26A U76A the self-cleavage was 0.78. Work on A13U A18G U31C U51C yielded a self-cleavage of 0.16. With A13U A18G U31C U76C A77U the self-cleavage was 0.25. A13U A18G U41C showed a self-cleavage of 0.87. Variant A13U A18G U41C U58C has a self-cleavage of 0.75. In the case of A13U A18G U43A C71A, the self-cleavage is reported as 0.16. Work on A13U A18G U43C yielded a self-cleavage of 0.25. For A13U A18G U43C A57G, the self-cleavage was 0.29. In the case of A13U A18G U43C A65G, the self-cleavage is reported as 0.11. In the case of A13U A18G U43C U60C, the self-cleavage is reported as 0.12. In the case of A13U A18G U51C U58C U67C U69A, the self-cleavage is reported as 0.31. Variant A13U A18U A20G has a self-cleavage of 0.18. A13U A18U A20U U43C showed a self-cleavage of 0.17. In the case of A13U A18U A21C U43C, the self-cleavage is reported as 0.19. Work on A13U A18U A28U U41C A45G yielded a self-cleavage of 0.15. A13U A18U A45G A56U gave a self-cleavage of 0.09. A13U A18U A47G U51A C62U U72C U80C showed a self-cleavage of 0.26. With A13U A18U A56C A75U the self-cleavage was 0.17. With A13U A18U A75U C81U the self-cleavage was 0.82. A13U A18U C27G U43A U49C A57G showed a self-cleavage of 0.05. With A13U A18U G33A A47G U60C the self-cleavage was 0.05. With A13U A18U G36C U51A the self-cleavage was 0.07. A13U A18U G36U A75U gave a self-cleavage of 0.06. In the case of A13U A18U U25C U58A, the self-cleavage is reported as 0.12. A13U A18U U26A A65G U76C showed a self-cleavage of 0.12. A13U A18U U26A U60A A65G U74A showed a self-cleavage of 0.1. A13U A18U U31C G33A C59U showed a self-cleavage of 0.07. A13U A18U U41A U43C C50U U76C U78C gave a self-cleavage of 0.05. Variant A13U A18U U43C C68A has a self-cleavage of 0.07. For A13U A18U U54G U72C U76C, the self-cleavage was 0.22. Variant A13U A18U U60C G63A U66A U76C has a self-cleavage of 0.19. With A13U A20C U41C A75G the self-cleavage was 0.25. A13U A20C U43C gave a self-cleavage of 0.27. A13U A20C U72C showed a self-cleavage of 0.38. Variant A13U A20G A21U has a self-cleavage of 0.28. With A13U A20G A28G the self-cleavage was 0.54. With A13U A20G A28U A56G U69C the self-cleavage was 0.4. In the case of A13U A20G A28U G52A C62A, the self-cleavage is reported as 0.21. In the case of A13U A20G A28U U31C A35U A56G, the self-cleavage is reported as 0.06. In the case of A13U A20G A45G, the self-cleavage is reported as 0.6. A13U A20G A45U G70C gave a self-cleavage of 0.11. Work on A13U A20G A56G A64G yielded a self-cleavage of 0.62. A13U A20G A56G U60A U74A showed a self-cleavage of 0.28. For A13U A20G A56U U67C, the self-cleavage was 0.26. Work on A13U A20G C23U A28G U74C yielded a self-cleavage of 0.53. For A13U A20G G36U A45G, the self-cleavage was 0.21. In the case of A13U A20G G70C, the self-cleavage is reported as 0.22. In the case of A13U A20G U26C U41C U60C U69C, the self-cleavage is reported as 0.26. A13U A20G U41C A45G C62G U67C gave a self-cleavage of 0.14. In the case of A13U A20G U43C, the self-cleavage is reported as 0.36. In the case of A13U A20G U43C A57G U72A, the self-cleavage is reported as 0.1. A13U A20G U51A U54G A56G showed a self-cleavage of 0.35. With A13U A20G U54C U69C the self-cleavage was 0.32. A13U A20G U54C U78A showed a self-cleavage of 0.39. With A13U A20G U54G the self-cleavage was 0.57. A13U A20G U60C A77U showed a self-cleavage of 0.34. A13U A20U A28G A64G gave a self-cleavage of 0.18. A13U A20U A28G U72C gave a self-cleavage of 0.17. For A13U A20U A28U U41A U49C U66C, the self-cleavage was 0.06. With A13U A20U A35G A65G U76C C79U the self-cleavage was 0.34. For A13U A20U A35G U69A, the self-cleavage was 0.29. Variant A13U A20U A35G U76C has a self-cleavage of 0.25. A13U A20U A47G gave a self-cleavage of 0.16. In the case of A13U A20U A56G, the self-cleavage is reported as 0.2. Variant A13U A20U C62U has a self-cleavage of 0.06. A13U A20U U41C U43C A57G gave a self-cleavage of 0.21. A13U A20U U43A A45G A64C A65G gave a self-cleavage of 0.09. A13U A20U U43C U54C showed a self-cleavage of 0.12. In the case of A13U A20U U54C U76A A77G, the self-cleavage is reported as 0.4. Variant A13U A20U U67C has a self-cleavage of 0.2. For A13U A20U U69A U78C, the self-cleavage was 0.24. For A13U A21G A28G, the self-cleavage was 0.17. In the case of A13U A21G A28G A45G, the self-cleavage is reported as 0.12. A13U A21G A35G A45G U54C U67C A75G showed a self-cleavage of 0.07. A13U A21G A45U U54C U80C gave a self-cleavage of 0.32. In the case of A13U A21G A47G U54A A64G U80C, the self-cleavage is reported as 0.22. Variant A13U A21G A57G U58G has a self-cleavage of 0.2. A13U A21G C32U U67C gave a self-cleavage of 0.1. With A13U A21G C38U U48C U78C the self-cleavage was 0.06. Work on A13U A21G C68U yielded a self-cleavage of 0.13. With A13U A21G C71A U74C the self-cleavage was 0.1. A13U A21G G22A U26G U41A A45U gave a self-cleavage of 0.03. For A13U A21G G24C, the self-cleavage was 0.05. Variant A13U A21G U25A A28G U48C U72C has a self-cleavage of 0.22. For A13U A21G U25A U66C U72A, the self-cleavage was 0.14. For A13U A21G U25C U49C, the self-cleavage was 0.12. A13U A21G U26A U41A A45C showed a self-cleavage of 0.07. For A13U A21G U31C A35G A45C A64G A75G, the self-cleavage was 0.07. For A13U A21G U31C C68A, the self-cleavage was 0.06. With A13U A21G U43C A64G U80C the self-cleavage was 0.08. Variant A13U A21G U43C U60A U76A has a self-cleavage of 0.36. A13U A21G U60C gave a self-cleavage of 0.26. A13U A21G U60C U66C A75G U76A gave a self-cleavage of 0.11. A13U A21G U66C A75G showed a self-cleavage of 1.01. Variant A13U A21U A45U A47G has a self-cleavage of 0.15. Variant A13U A21U A57G A64G U66C U76C A77U has a self-cleavage of 0.08. For A13U A21U A65G, the self-cleavage was 0.18. With A13U A21U C62A U76C the self-cleavage was 0.16. A13U A21U U25C U51C gave a self-cleavage of 0.06. Work on A13U A21U U31C yielded a self-cleavage of 0.46. A13U A21U U60C U67C gave a self-cleavage of 0.12. Variant A13U A21U U72G has a self-cleavage of 0.22. For A13U A28C A35U U67C, the self-cleavage was 0.07. In the case of A13U A28C U60C A65G U72G, the self-cleavage is reported as 0.11. Work on A13U A28G A35G yielded a self-cleavage of 0.67. A13U A28G A45G A64G A75U showed a self-cleavage of 0.17. A13U A28G A45U U60A gave a self-cleavage of 0.88. For A13U A28G A47U A57G A64G, the self-cleavage was 0.18. For A13U A28G A56G U72C, the self-cleavage was 0.41. A13U A28G A64U gave a self-cleavage of 0.26. A13U A28G C29U U78A gave a self-cleavage of 0.42. Variant A13U A28G C62U U72C U80A has a self-cleavage of 0.08. For A13U A28G U41C C79G, the self-cleavage was 1.17. Work on A13U A28G U43A U51A yielded a self-cleavage of 0.33. For A13U A28G U49A U54A U69A U72A, the self-cleavage was 0.11. For A13U A28G U49C U60C, the self-cleavage was 0.29. For A13U A28G U51C, the self-cleavage was 0.68. A13U A28G U54A U69A showed a self-cleavage of 0.17. Variant A13U A28G U60A U66C has a self-cleavage of 0.13. With A13U A28U A75G the self-cleavage was 1.07. A13U A28U C29A A45G U78C gave a self-cleavage of 0.07. In the case of A13U A28U C32A U51C A64G, the self-cleavage is reported as 0.08. With A13U A28U C40G U58C the self-cleavage was 0.02. In the case of A13U A28U U43C, the self-cleavage is reported as 0.55. With A13U A28U U43G C44U the self-cleavage was 0.2. For A13U A28U U54C A64G U67A G73A, the self-cleavage was 0.38. With A13U A28U U78A the self-cleavage was 1.07. With A13U A35G A45G U60C the self-cleavage was 1.32. For A13U A35G A56G A65U, the self-cleavage was 0.75. For A13U A35G A56G U66C, the self-cleavage was 1.22. A13U A35G U41C A56G U67C gave a self-cleavage of 0.51. A13U A35G U48C A56G U72C A77C showed a self-cleavage of 1.02. Work on A13U A35G U51C A57G yielded a self-cleavage of 1.29.
